Test results taken from patent publication US11479587B2, “Cationic intrinsically disordered antimicrobial peptides” (priority 2016, dated 2022).
≈ marks a conversion by molar mass, not a printed value. Part of at least one peptide drawing is inferred or uncertain, most often the ends. Some results were stated once for a whole list of compounds, not compound by compound. Residues, ends and D or L forms follow the SMILES beside them. No end group written: not given here.

Legend:
S. aureus ATCC 6538 = assay: CFU-assay, S. aureus-cidal activity; format: cell-based, Staphylococcus aureus
Description: (§1) Thus, within the present invention, the antimicrobial activity is generally measured in nutrient deficient 10 mM sodium phosphate buffer pH 5.5, containing 0.25% glucose, using the CFU-assay according to Steinberg and Lehrer, 1997 (supra), unless otherwise indicated. The CFU-assay allows determination of the minimal bactericidal concentration (MBC, e.g., MBC90 and MBC100; i.e. the concentration of compound required to achieve a specified reduction in bacterial cell number (microbial death or killing)).
Various peptides corresponding to repeat domains of hornerin (HR 1-11: HRNR 2606-2628; HR 1-17: HRNR 2656-2684 and HR 1-18: HRNR 2656-2677) were tested for P. aeruginosa ATCC 10145-cidal activity in 10 mM Na-phosphate buffer pH 5.5, containing 0.25% glucose by counting the numbers of colonies of surviving bacteria at serial, twofold dilutions from 300 μg/ml down to 19 ng/ml of each peptide (CFU-assay; Steinberg and Lehrer, 1997, Methods Mol. Biol. 78, 169-186).
Staphylococcus aureus is a major skin pathogen, which causes skin infections, in particular in atopic dermatitis. The sensitivity of S. aureus ATCC 6538 towards several CIDAMPs was assessed using the CFU-assay as above (see Example 1). HR 1-18, which lacks S. aureus.-bactericidal activity, is converted in a S. aureus-cidal peptide, when all His are replaced by Arg (HR 1-18 4H-4R; see Table 13 and FIG. 9). […] HR 1-18 4H-4R is rich in Ser and Arg and contains a single Leu residue. When this single Leu was replaced by Gly in S. aureus-cidal HR 1-18 4H-4R (forming HR 1-18 4H-4R/L-G), S. aureus-cidal activity was abolished at both pH 7.0 and pH 5.5 (see Table 13 and FIG. 9).

C. neoformans = settings: standard conditions at pH 7.4; activity at concentration <32 pg/ml
P. aeruginosa ATCC 10145 = assay: CFU-assay, P. aeruginosa-cidal activity; format: cell-based, Pseudomonas aeruginosa; settings: for MBC90 / MBC100: pH 5.5, 0.25% glucose
[1] = test system: Candida albicans ATCC 24433; assay: CFU-assay, Candida albicans-cidal activity; format: cell-based
Description: as §1, with “killing)). […]” for “killing)).”
HR 1-17 affects C. albicans ATCC 24433 with highest activity at pH 5.5 in the absence of TSB in the medium (see Tables 12, 24). […] Furthermore, the substitution of any of the Arg residues by Gly leads to a dramatic reduction or loss of candidacidal activity (see Table 24).

[2] = test system: Burkholderia cepacia ATCC 25416; assay: CFU-assay, Burkholderia cepacia-cidal activity; format: cell-based

With SHHRHFRSHQCRR [LCE3C55-67] the MBC90 (S. aureus ATCC 6538; pH 5.5, 0.25% glucose) was 2.35 µg/mL, the MBC100 (S. aureus ATCC 6538; pH 5.5, 0.25% glucose) was >150 µg/mL and the max.killing (S. aureus ATCC 6538; pH 5.5, 0.25% glucose) was “max.killing: 97.7%”. The “Antifungal activity, C. neoformans ATCC 208821” value (shortened to “Antifungal activity”) (C. neoformans) was “A (A-active)”.

GRRGGRGGRGRGR [GR13] was tested, and the “P. aeruginosa MBC90” value (P. aeruginosa ATCC 10145; pH 5.5) was 0.028 µM, the “P. aeruginosa MBC100” value (P. aeruginosa ATCC 10145; pH 5.5) was 0.055 µM and the MBC90 (P. aeruginosa ATCC 10145) was 0.028 µM. The MBC100 (P. aeruginosa ATCC 10145) was 0.055 µM, the “S. aureus MBC90” value (S. aureus ATCC 6538; pH 5.5) was 5.54 µM and the “S. aureus MBC100” value (S. aureus ATCC 6538; pH 5.5) was >55 µM. The MBC90 (S. aureus ATCC 6538; pH 5.5, 0.25% glucose) was 75 µg/mL, the MBC100 (S. aureus ATCC 6538; pH 5.5, 0.25% glucose) was >300 µg/mL and the MBC90 (S. aureus ATCC 6538; pH 7.0, 0.25% glucose) was 75 µg/mL. The MBC100 (S. aureus ATCC 6538; pH 7.0, 0.25% glucose) was >300 µg/mL and the “Antifungal activity” value (C. neoformans) was “I (I-inactive)”.

With `N=C(N)NCCC[C@H](NC(=O)[C@H](CC(=O)O)NC(=O)[C@H](CS)NC(=O)[C@H](CO)NC(=O)[C@H](CC(N)=O)NC(=O)[C@H](CO)NC(=O)[C@H](CCCNC(=N)N)NC(=O)[C@H](CCC(N)=O)NC(=O)[C@H](CCCNC(=N)N)NC(=O)[C@H](CCCNC(=N)N)NC(=O)[C@H](CS)NC(=O)[C@H](CCC(N)=O)NC(=O)[C@H](Cc1c[nH]cn1)NC(=O)[C@H](CO)NC(=O)[C@H](CCCNC(=N)N)NC(=O)[C@H](Cc1ccccc1)NC(=O)[C@H](Cc1c[nH]cn1)NC(=O)[C@H](CCCNC(=N)N)NC(=O)[C@H](Cc1c[nH]cn1)NC(=O)[C@H](Cc1c[nH]cn1)NC(=O)[C@@H](N)CO)C(=O)O` [LCE3C55-75] (H-SHHRHFRSHQCRRQRSNSCDR-OH) the MBC90 (S. aureus ATCC 6538; pH 5.5, 0.25% glucose) was 0.59 µg/mL (≈ 0.219 µM), the MBC100 (S. aureus ATCC 6538; pH 5.5, 0.25% glucose) was >150 µg/mL and the max.killing (S. aureus ATCC 6538; pH 5.5, 0.25% glucose) was “max.killing: 99.4%”. For the same compound, the “Antifungal activity” value (C. neoformans) was “A (A-active)”.

For `CCCCCCCCCCCCCCCC(=O)N[C@@H](CO)C(=O)N[C@@H](Cc1c[nH]cn1)C(=O)N[C@@H](Cc1c[nH]cn1)C(=O)N[C@@H](CCCNC(=N)N)C(=O)N[C@@H](Cc1c[nH]cn1)C(=O)N[C@@H](Cc1ccccc1)C(=O)N[C@@H](CCCNC(=N)N)C(=O)N[C@@H](CO)C(=O)N[C@@H](Cc1c[nH]cn1)C(=O)N[C@@H](CCC(N)=O)C(=O)N[C@@H](CS)C(=O)N[C@@H](CCCNC(=N)N)C(=O)N[C@@H](CCCNC(=N)N)C(=O)O` [Pal-LCE3C55-67] (HELM PEPTIDE1{[CCCCCCCCCCCCCCCC(=O)[*:2]].S.H.H.R.H.F.R.S.H.Q.C.R.R}$$$$V2.0), the MBC90 (S. aureus ATCC 6538; pH 5.5, 0.25% glucose) was 0.038 µg/mL (≈ 0.0192 µM), the MBC100 (S. aureus ATCC 6538; pH 5.5, 0.25% glucose) was 0.3 µg/mL and the MBC100 (S. aureus ATCC 6538; pH 5.5, 0.25% glucose (text)) was 0.078 to 0.307 µM. For the same compound, the “Antifungal activity” value (C. neoformans) was “A (A-active)”.

`CCCCCCCCCCCCCCCC(=O)NCC(=O)N[C@@H](CCCCN)C(=O)N[C@@H](CCCCN)C(=O)NCC(=O)NCC(=O)N[C@@H](CCCCN)C(=O)NCC(=O)NCC(=O)N[C@@H](CCCCN)C(=O)NCC(=O)N[C@@H](CCCCN)C(=O)NCC(=O)N[C@@H](CCCCN)C(=O)O` [Pal-K-GR13] (HELM PEPTIDE1{[CCCCCCCCCCCCCCCC(=O)[*:2]].G.K.K.G.G.K.G.G.K.G.K.G.K}$$$$V2.0) was tested, and the MBC90 (P. aeruginosa ATCC 10145) was <0.019 µg/mL, the MBC100 (P. aeruginosa ATCC 10145) was 0.15 µg/mL and the MBC90 (S. aureus ATCC 6538; pH 5.5, 0.25% glucose) was 0.59 µg/mL (≈ 0.414 µM). The MBC100 (S. aureus ATCC 6538; pH 5.5, 0.25% glucose) was >300 µg/mL and the “Antifungal activity” value (C. neoformans) was “I (I-inactive)”.

Compound `CCCCCCCCCCCCCCCC(=O)NCC(=O)N[C@@H](CCCNC(=N)N)C(=O)N[C@@H](CCCNC(=N)N)C(=O)NCC(=O)N[C@@H](CO)C(=O)NCC(=O)N[C@@H](CC(C)C)C(=O)NCC(=O)N[C@@H](CCCNC(=N)N)C(=O)N[C@@H](CO)C(=O)N[C@@H](CO)C(=O)N[C@@H](CO)C(=O)N[C@@H](CCCNC(=N)N)C(=O)O` [Pal-HR 1-18 3H3R-GR13] (HELM PEPTIDE1{[CCCCCCCCCCCCCCCC(=O)[*:2]].G.R.R.G.S.G.L.G.R.S.S.S.R}$$$$V2.0) has an MBC90 (P. aeruginosa ATCC 10145) of 0.59 µg/mL, an MBC100 (P. aeruginosa ATCC 10145) of 4.7 µg/mL and an MBC90 (S. aureus ATCC 6538; pH 5.5, 0.25% glucose) of 2.35 µg/mL (≈ 1.5 µM). For the same compound, the MBC100 (S. aureus ATCC 6538; pH 5.5, 0.25% glucose) was 37.5 µg/mL, the MBC90 ([1]; pH 5.5, 0.25% glucose) was 0.59 µg/mL (≈ 0.376 µM) and the MBC100 ([1]; pH 5.5, 0.25% glucose) was 1.18 µg/mL (≈ 0.751 µM). For the same compound, the MBC90 ([1]; pH 7.3, 1% TSB) was 4.7 µg/mL (≈ 2.99 µM), the MBC100 ([1]; pH 7.3, 1% TSB) was 18.75 µg/mL (≈ 11.9 µM) and the MBC90 ([2]; pH 5.5, 0.25% glucose) was >300 µg/mL. The MBC100 ([2]; pH 5.5, 0.25% glucose) was >300 µg/mL, the MBC90 ([2]; pH 7.3, 0.25% glucose) was 4.7 µg/mL (≈ 2.99 µM) and the MBC100 ([2]; pH 7.3, 0.25% glucose) was 9.38 µg/mL (≈ 5.97 µM).

SHHRPRLFHRRRH [LCE2B74-86] was tested, and the MBC90 (S. aureus ATCC 6538; pH 5.5, 0.25% glucose) was 1.18 µg/mL, the MBC100 (S. aureus ATCC 6538; pH 5.5, 0.25% glucose) was >150 µg/mL and the max.killing (S. aureus ATCC 6538; pH 5.5, 0.25% glucose) was “max.killing: 97.4%”. The “Antifungal activity” value (C. neoformans) was “A (A-active)”.
